Laboratory results reported in publication PMC8560823, “Structural insights into the clustering and activation of Tie2 receptor mediated by Tie2 agonistic antibody” (Nature Communications, 2021).

Target: the molecule itself
Assay: SEC; fluorescence size-exclusion chromatography (FSEC) of full-length Tie2-GFP solubilised from HEK293F membranes by LMNG-CHS

B1: full-length Tie2-GFP wild-type (receptor, human, UniProt Q02763 23-1124, looked up)
chain: AMDLILINSLPLVSDAETSLTCIASGWRPHEPITIGRDFEALMNQHQDPLEVTQDVTREWAKKVVWKREKASKINGAYFCEGRVRGEAIRIRTMKMRQQASFLPATLTMTVDKGDNVNISFKKVLIKEEDAVIYKNGSFIHSVPRHEVPDILEVHLPHAQPQDAGVYSARYIGGNLFTSAFTRLIVRRCEAQKWGPECNHLCTACMNNGVCHEDTGECICPPGFMGRTCEKACELHTFGRTCKERCSGQEGCKSYVFCLPDPYGCSCATGWKGLQCNEACHPGFYGPDCKLRCSCNNGEMCDRFQGCLCSPGWQGLQCEREGIQRMTPKIVDLPDHIEVNSGKFNPICKASGWPLPTNEEMTLVKPDGTVLHPKDFNHTDHFSVAIFTIHRILPPDSGVWVCSVNTVAGMVEKPFNISVKVLPKPLNAPNVIDTGHNFAVINISSEPYFGDGPIKSKKLLYKPVNHYEAWQHIQVTNEIVTLNYLEPRTEYELCVQLVRRGEGGEGHPGPVRRFTTASIGLPPPRGLNLLPKSQTTLNLTWQPIFPSSEDDFYVEVERRSVQKSDQQNIKVPGNLTSVLLNNLHPREQYVVRARVNTKAQGEWSEDLTAWTLSDILPPQPENIKISNITHSSAVISWTILDGYSISSITIRYKVQGKNEDQHVDVKIKNATITQYQLKGLEPETAYQVDIFAENNIGSSNPAFSHELVTLPESQAPADLGGGKMLLIAILGSAGMTCLTVLLAFLIILQLKRANVQRRMAQAFQNVREEPAVQFNSGTLALNRKVKNNPDPTIYPVLDWNDIKFQDVIGEGNFGQVLKARIKKDGLRMDAAIKRMKEYASKDDHRDFAGELEVLCKLGHHPNIINLLGACEHRGYLYLAIEYAPHGNLLDFLRKSRVLETDPAFAIANSTASTLSSQQLLHFAADVARGMDYLSQKQFIHRDLAARNILVGENYVAKIADFGLSRGQEVYVKKTMGRLPVRWMAIESLNYSVYTTNSDVWSYGVLLWEIVSLGGTPYCGMTCAELYEKLPQGYRLEKPLNCDDEVYDLMRQCWREKPYERPSFAQILVSLNRMLEERKTYVNTTLYEKFTYAGIDCSAEEAA
notes: signal peptide in the construct; full-length human Tie2, residues 1–1124; also called Tie2 WT; WT Tie2; source: HEK293F membranes, solubilised with LMNG-CHS (FSEC); HEK293T, transiently transfected (cell assays); not shown: eGFP, C-terminal, kept
  stoichiometry N: 2
